# Test results published in the supplement of paper PMC3334620.
# Whole data set: some 33,000 sequences, median “E-score (-0.5 to 0.5)” near -0.017, cut for the highest 2% near 0.3. This is one part of the list.
# Molecular target: T1, Sut1 (UniProt P53032)
# T1 sequence: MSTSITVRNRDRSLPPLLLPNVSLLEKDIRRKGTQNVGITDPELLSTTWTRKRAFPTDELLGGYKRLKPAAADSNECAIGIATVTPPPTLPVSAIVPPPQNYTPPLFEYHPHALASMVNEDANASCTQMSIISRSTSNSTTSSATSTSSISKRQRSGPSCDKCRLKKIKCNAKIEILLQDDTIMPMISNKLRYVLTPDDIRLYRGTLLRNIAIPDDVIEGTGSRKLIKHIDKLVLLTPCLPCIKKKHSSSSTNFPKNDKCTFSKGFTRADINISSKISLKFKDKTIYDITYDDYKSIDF
# Test: PBM E-score (8-mer binding enrichment) (E-score (-0.5 to 0.5)); higher = stronger / more preferred TF binding; most listed sequences are background and not binding sites
# Conditions: protein concentration: 200 nM; construct: GST-full length
# In short: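 Masliner-normalised scans of fluorescent anti-GST signal were the basis for scoring. That signal came from GST-tagged yeast transcription factors applied at about 100-200 nM to double-stranded universal all-10-mer Agilent arrays on fresh or once-stripped slides. Each ungapped eight-base word, pooled with its reverse complement, received an E-score from the Universal PBM Analysis Suite.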
row,Sequence,PBM E-score
1,ACGTAGGG,-0.298
2,GCTTCGAC,-0.218
3,ATAGGCTG,-0.182
4,ACTATGTC,0.041
5,AGCCTTGC,-0.254
6,AGTCAGGG,-0.315
7,CAAGTGGA,-0.0423
8,CCTGAGGA,-0.154
9,CGTACTAC,0.0559
10,AATCTGGT,0.047
11,CACAACAA,0.118
12,AGCCGGAT,0.125
13,AAACTTTA,0.219
14,CGTAGAAA,0.131
15,GAAACTTA,0.307
16,CAGTCGCC,-0.063
17,TGAACCCA,-0.00171
18,AGATTCAT,0.0265
19,AGGAAGCA,0.00387
20,AGTTTTTA,0.175
21,AATAGGTG,-0.066
22,ACCCCTAC,-0.29
23,AAAAACAT,0.101
24,AGCCCTAT,-0.184
25,CTTACACC,-0.0956

row,Sequence,PBM E-score
1,CTTGGACA,-0.0984
2,AAGTATTA,0.0998
3,GCTCAGCA,-0.124
4,TAGTCCGA,0.48
5,GACCAAAC,-0.209
6,ACACCCGC,-0.0186
7,CCGCGAAC,0.0271
8,AACAGTTA,0.132
9,AGAGGAGC,-0.138
10,AATCCATG,0.0261
11,ACGCGCCG,-0.0981
12,ATCGTCCG,0.0218
13,AAATTCAT,0.184
14,CACCCGTA,-0.0523
15,ACTTCATG,-0.0674
16,ACAGCCAC,0.00395
17,CACCCTGG,-0.306
18,CCTCATGC,-0.138
19,GAGGGAAA,-0.141
20,GCTACGCC,-0.318
21,CTCCCATA,-0.259
22,ATCTCTTG,-0.16
23,AGGGCACT,-0.264
24,CCGTAACC,0.0585
25,ATTGCAGA,0.062

row,Sequence,PBM E-score
1,CCCAGACG,-0.292
2,CCCCTTTA,-0.043
3,CGGTCGTC,-0.0814
4,ACCATGGT,-0.15
5,ACTCTGAG,-0.216
6,GAGAACCA,0.0629
7,CACGGGAA,-0.137
8,ATACTCTC,0.0507
9,CCCCCACC,-0.31
10,ATACCCCC,-0.197
11,CGGGAAAC,0.0593
12,CCTAGGTA,-0.0825
13,AGGCTCAG,-0.161
14,GGCGGAAA,0.156
15,TGAACGAA,-0.00471
16,CAAGTGAA,0.0241
17,ATACACCC,0.0511
18,TAGAACGA,0.0857
19,ACTCCGCC,0.438
20,ACTCACCC,0.108
21,ACGACAGG,-0.0395
22,AATATGTA,0.193
23,AGGTTCGC,-0.164
24,TAATCGCA,-0.0128
25,AGTCAGAG,0.041

row,Sequence,PBM E-score
1,AGCGTTGC,0.106
2,AAGAGAAG,-0.0209
3,AGTGTTGC,0.0842
4,CAACGGCG,-0.0804
5,CATCCCTC,0.0831
6,ATCATTGG,0.00019
7,GGAGTCCA,0.217
8,TAATTAAA,0.235
9,TAAATGCA,0.162
10,AGGTTCCA,-0.075
11,AGGCAGAT,-0.0134
12,CCTCCAGA,-0.0481
13,AATGCGGT,0.0457
14,CGGCAAAC,0.178
15,ACATCGCT,-0.128
16,GGACTGTA,0.0855
17,ACTCGGGG,0.0947
18,ACGAAGTA,-0.073
19,GCTCAGGA,-0.0744
20,AAAGTGTT,0.176
21,GGACCACA,-0.0349
22,CGTTTTAG,-0.0873
23,GACTTCGA,0.0715
24,CAGCTTCG,-0.0303
25,GCGAGTTA,0.136

row,Sequence,PBM E-score
1,GATTTAGA,0.0771
2,CGCAACCG,-0.034
3,AGTCCGCC,0.375
4,CACGTACA,-0.176
5,ATAGTAAG,0.183
6,AGCGAGGC,-0.185
7,CGGGGTGA,0.177
8,AAGCGTAC,-0.177
9,AATCTATA,0.281
10,ATAGGATG,0.0582
11,CGTAAATC,0.0899
12,CATTGGAC,-0.0502
13,AGCCTACG,-0.109
14,ACTGTGCA,-0.104
15,TGAGGCCA,-0.00211
16,CCTTTTTA,0.114
17,CGAGGTTA,0.0207
18,GAGGGAGA,-0.268
19,CGCCCTGC,-0.141
20,AAAACCTC,0.181
21,CAGTGCTC,-0.022
22,ATTAAGCA,0.00396
23,AAGCTTAC,0.0195
24,TCGGTGAA,0.0263
25,TAACATGA,0.118

row,Sequence,PBM E-score
1,GGAACACA,-0.0182
2,ACCCCCGG,-0.0829
3,AAGAGCGC,-0.0157
4,CGTTAAAA,0.152
5,CGGGTAAG,-0.17
6,ACTATCCC,-0.119
7,GCCGTATA,0.193
8,CATGGAGC,-0.166
9,GCACCTCC,-0.204
10,CTTGGAGC,-0.0411
11,CACTGCCC,-0.193
12,AGGCGGCG,-0.206
13,CGGCCGTC,-0.138
14,CATCCGAA,0.151
15,AAAGCGGA,0.129
16,TCACCAGA,-0.224
17,GGGTAGCA,-0.206
18,GGTCGTTA,-0.0964
19,CCCCGCTA,-0.00288
20,ATTGTCAC,0.141
21,GCCCAATA,-0.0138
22,AGAGACCG,-0.171
23,CCTAACCA,0.0768
24,AGCGACGA,-0.145
25,TACCATAA,0.0703

row,Sequence,PBM E-score
1,GGGACGAC,0.00063
2,TACAATAA,0.213
3,ATGTTGCA,-0.0682
4,AAAGGTCA,-0.135
5,GTGCCACA,-0.28
6,ATCTTACA,0.12
7,CTCATCCA,-0.124
8,TTGGGAAA,0.101
9,CCCGGTAG,0.0344
10,GGCGCACA,-0.147
11,GACGAGAA,0.0679
12,AGAAAAGC,0.155
13,TAATATCA,0.306
14,CGTAAAGC,-0.15
15,AGGACACT,-0.0667
16,ACCGAGCC,0.0511
17,CCAATCGG,-0.0231
18,TACTAGGA,0.0617
19,CTTTCGTC,-0.0686
20,AAATCTTA,0.11
21,CTGACATA,-0.144
22,ACTATTCG,0.149
